Tests used:
[1] = for solubility in water: 5° C., 50 mg in 1 ml of water
[2] = stored for a long term

CCCCCCCCCCCCCCCCCCOCC(COP(=O)([O-])OCC[N+](C)(C)C)OC (centres unmarked) [Compound [2]]
solubility in water [1]: clear semi-solid

CCCCCCCCCCCCCCCCCCNC(=O)OCC(COP(=O)([O-])OCC[N+](C)(C)C)OC (centres unmarked) [Compound [3]]
solubility in water [1]: clear semi-solid
properties of combination with sodium salicylate ([1]; with sodium salicylate, unsuitable for intravenous administration): semisolid

CCCCCCCCCCCCCCCCCCNC(=O)OCC(COP(=O)([O-])OCC[n+]1ccsc1)OC (centres unmarked) [Compound [1], 3-(n-Octadecylcarbamoyloxy)-2-methoxypropyl 2-thiazolioethyl phosphate]
solubility in water [1]: cloudy
stability in aqueous solution [2]: unstable
